Experimental data taken from the supplement of paper PMC8728848.
The list shows a part of the results.

Experiments:
Test in all cases: glycan array binding signal (z-score within array); higher = stronger binding
Settings in all cases: glycan notation: IUPAC condensed, linker removed
[1] = biological target: Fuc(a1-2)Gal6S(b1-3)GlcNAc6S
In short: (§1)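 From the Consortium for Functional Glycomics database, 3228 arrays were curated, keeping only those whose protein sequence was available. Binding is given as a within-array Z-score averaged across arrays sharing a protein sequence and across linkers. Negative Z-scores can be read as non-binding.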

[2] = biological target: Fuc(a1-2)Gal6S(b1-4)Glc
In short: as §1

[3] = biological target: Fuc(a1-2)Gal6S(b1-4)Glc6S
In short: as §1

[4] = biological target: Fuc(a1-2)[Gal(a1-3)]Gal
In short: as §1

[5] = biological target: Fuc(a1-2)[Gal(a1-3)]Gal(b1-3)GalNAc
In short: as §1

[6] = biological target: Fuc(a1-2)[Gal(a1-3)]Gal(b1-3)GalNAc(b1-3)Gal(a1-4)Gal(b1-4)Glc
In short: as §1

[7] = biological target: Fuc(a1-2)[Gal(a1-3)]Gal(b1-3)GlcNAc
In short: as §1

[8] = biological target: Fuc(a1-2)[Gal(a1-3)]Gal(b1-3)GlcNAc(b1-2)Man(a1-3)[Fuc(a1-2)[Gal(a1-3)]Gal(b1-3)GlcNAc(b1-2)Man(a1-6)]Man(b1-4)GlcNAc(b1-4)GlcNAc
In short: as §1

[9] = biological target: Fuc(a1-2)[Gal(a1-3)]Gal(b1-3)GlcNAc(b1-2)Man(a1-3)[Fuc(a1-2)[Gal(a1-3)]Gal(b1-3)GlcNAc(b1-2)Man(a1-6)]Man(b1-4)GlcNAc(b1-4)[Fuc(a1-6)]GlcNAc
In short: as §1

[10] = biological target: Fuc(a1-2)[Gal(a1-3)]Gal(b1-3)GlcNAc(b1-3)GalNAc
In short: as §1

[11] = biological target: Fuc(a1-2)[Gal(a1-3)]Gal(b1-3)GlcNAc(b1-6)GalNAc
In short: as §1

[12] = biological target: Fuc(a1-2)[Gal(a1-3)]Gal(b1-4)Glc
In short: as §1

[13] = biological target: Fuc(a1-2)[Gal(a1-3)]Gal(b1-4)GlcNAc
In short: as §1

[14] = biological target: Fuc(a1-2)[Gal(a1-3)]Gal(b1-4)GlcNAc(b1-2)Man
In short: as §1

[15] = biological target: Fuc(a1-2)[Gal(a1-3)]Gal(b1-4)GlcNAc(b1-2)Man(a1-3)[Fuc(a1-2)[Gal(a1-3)]Gal(b1-4)GlcNAc(b1-2)Man(a1-6)]Man(b1-4)GlcNAc(b1-4)GlcNAc
In short: as §1

[16] = biological target: Fuc(a1-2)[Gal(a1-3)]Gal(b1-4)GlcNAc(b1-2)Man(a1-3)[Fuc(a1-2)[Gal(a1-3)]Gal(b1-4)GlcNAc(b1-2)Man(a1-6)]Man(b1-4)GlcNAc(b1-4)[Fuc(a1-6)]GlcNAc
In short: as §1

[17] = biological target: Fuc(a1-2)[Gal(a1-3)]Gal(b1-4)GlcNAc(b1-3)GalNAc
In short: as §1

[18] = biological target: Fuc(a1-2)[Gal(a1-3)]Gal(b1-4)GlcNAc(b1-3)[Fuc(a1-2)[Gal(a1-3)]Gal(b1-4)GlcNAc(b1-6)]GalNAc
In short: as §1

[19] = biological target: Fuc(a1-2)[Gal(a1-3)]Gal(b1-4)GlcNAc(b1-6)GalNAc
In short: as §1

[20] = biological target: Fuc(a1-2)[Gal(a1-3)]Gal(b1-4)[Fuc(a1-3)]Glc
In short: as §1

[21] = biological target: Fuc(a1-2)[Gal(a1-3)]Gal(b1-4)[Fuc(a1-3)]GlcNAc
In short: as §1

[22] = biological target: Fuc(a1-2)[Gal(a1-3)]Gal(b1-4)[Fuc(a1-3)]GlcNAc(b1-3)GalNAc
In short: as §1

[23] = biological target: Fuc(a1-2)[Gal(a1-4)]Gal(b1-4)GlcNAc
In short: as §1

[24] = biological target: Fuc(a1-2)[GalNAc(a1-3)]Gal
In short: as §1

[25] = biological target: Fuc(a1-2)[GalNAc(a1-3)]Gal(b1-3)GalNAc(a1-3)[Fuc(a1-2)]Gal(b1-4)GlcNAc
In short: as §1

[26] = biological target: Fuc(a1-2)[GalNAc(a1-3)]Gal(b1-3)GalNAc(b1-3)Gal(a1-4)Gal(b1-4)Glc
In short: as §1

[27] = biological target: Fuc(a1-2)[GalNAc(a1-3)]Gal(b1-3)GlcNAc
In short: as §1

[28] = biological target: Fuc(a1-2)[GalNAc(a1-3)]Gal(b1-3)GlcNAc(b1-2)Man(a1-3)[Fuc(a1-2)[GalNAc(a1-3)]Gal(b1-3)GlcNAc(b1-2)Man(a1-6)]Man(b1-4)GlcNAc(b1-4)GlcNAc
In short: as §1

[29] = biological target: Fuc(a1-2)[GalNAc(a1-3)]Gal(b1-3)GlcNAc(b1-2)Man(a1-3)[Fuc(a1-2)[GalNAc(a1-3)]Gal(b1-3)GlcNAc(b1-2)Man(a1-6)]Man(b1-4)GlcNAc(b1-4)[Fuc(a1-6)]GlcNAc
In short: as §1

[30] = biological target: Fuc(a1-2)[GalNAc(a1-3)]Gal(b1-3)GlcNAc(b1-3)GalNAc
In short: as §1

[31] = biological target: Fuc(a1-2)[GalNAc(a1-3)]Gal(b1-3)GlcNAc(b1-6)GalNAc
In short: as §1

[32] = biological target: Fuc(a1-2)[GalNAc(a1-3)]Gal(b1-4)Glc
In short: as §1

[33] = biological target: Fuc(a1-2)[GalNAc(a1-3)]Gal(b1-4)GlcNAc
In short: as §1

[34] = biological target: Fuc(a1-2)[GalNAc(a1-3)]Gal(b1-4)GlcNAc(b1-2)Man
In short: as §1

[35] = biological target: Fuc(a1-2)[GalNAc(a1-3)]Gal(b1-4)GlcNAc(b1-2)Man(a1-3)[Fuc(a1-2)[GalNAc(a1-3)]Gal(b1-4)GlcNAc(b1-2)Man(a1-6)]Man(b1-4)GlcNAc(b1-4)GlcNAc
In short: as §1

[36] = biological target: Fuc(a1-2)[GalNAc(a1-3)]Gal(b1-4)GlcNAc(b1-2)Man(a1-3)[Fuc(a1-2)[GalNAc(a1-3)]Gal(b1-4)GlcNAc(b1-2)Man(a1-6)]Man(b1-4)GlcNAc(b1-4)[Fuc(a1-6)]GlcNAc
In short: as §1

[37] = biological target: Fuc(a1-2)[GalNAc(a1-3)]Gal(b1-4)GlcNAc(b1-3)Gal(b1-4)GlcNAc
In short: as §1

[38] = biological target: Fuc(a1-2)[GalNAc(a1-3)]Gal(b1-4)GlcNAc(b1-3)Gal(b1-4)GlcNAc(b1-3)Gal(b1-4)GlcNAc
In short: as §1

[39] = biological target: Fuc(a1-2)[GalNAc(a1-3)]Gal(b1-4)GlcNAc(b1-3)GalNAc
In short: as §1

[40] = biological target: Fuc(a1-2)[GalNAc(a1-3)]Gal(b1-4)GlcNAc(b1-3)[Fuc(a1-2)[GalNAc(a1-3)]Gal(b1-4)GlcNAc(b1-6)]GalNAc
In short: as §1

[41] = biological target: Fuc(a1-2)[GalNAc(a1-3)]Gal(b1-4)GlcNAc(b1-6)GalNAc
In short: as §1

[42] = biological target: Fuc(a1-2)[GalNAc(a1-3)]Gal(b1-4)[Fuc(a1-3)]GlcNAc
In short: as §1

[43] = biological target: Fuc(a1-2)[GalNAc(a1-3)]Gal(b1-4)[Fuc(a1-3)]GlcNAc(b1-3)GalNAc
In short: as §1

[44] = biological target: Fuc(a1-2)[GalNAc(a1-4)]Gal(b1-4)GlcNAc
In short: as §1

[45] = biological target: Fuc(a1-2)[GalNAc(b1-3)]Gal
In short: as §1

B1: FimA-N3 (Actinomyces oris) (protein)
chain: MHHHHHHSSGVDLGTENLYFQSNAGLQGAQFQLYKAKNAYANTCSNEKEGAPIAINGQTTLTTDAQGAIDIKGLFISDSIDGADRDNQVNAMERCYVLVETKAPAGYVLPAGNGAATPVKVKAGEETTDN
Q: Which results are given for B1?
A: glycan array binding signal (z-score) [1]: 0.505; glycan array binding signal (z-score) [2]: -0.047; glycan array binding signal (z-score) [3]: 0.307; glycan array binding signal (z-score) [4]: 1.16; glycan array binding signal (z-score) [5]: -0.19; glycan array binding signal (z-score) [6]: -0.425; glycan array binding signal (z-score) [7]: -0.258; glycan array binding signal (z-score) [8]: -0.378; glycan array binding signal (z-score) [9]: -0.364; glycan array binding signal (z-score) [10]: -0.516; glycan array binding signal (z-score) [11]: 0.125; glycan array binding signal (z-score) [12]: -0.016; glycan array binding signal (z-score) [13]: -0.557; glycan array binding signal (z-score) [14]: -0.344; glycan array binding signal (z-score) [15]: -0.35; glycan array binding signal (z-score) [16]: -0.169; glycan array binding signal (z-score) [17]: -0.486; glycan array binding signal (z-score) [18]: -0.597; glycan array binding signal (z-score) [19]: -0.294; glycan array binding signal (z-score) [20]: -0.378; glycan array binding signal (z-score) [21]: -0.515; glycan array binding signal (z-score) [22]: 0.505; glycan array binding signal (z-score) [23]: 0.009; glycan array binding signal (z-score) [24]: -0.241; glycan array binding signal (z-score) [25]: -0.107; glycan array binding signal (z-score) [26]: -0.661; glycan array binding signal (z-score) [27]: -0.552; glycan array binding signal (z-score) [28]: -0.261; glycan array binding signal (z-score) [29]: -0.333; glycan array binding signal (z-score) [30]: -0.208; glycan array binding signal (z-score) [31]: -0.415; glycan array binding signal (z-score) [32]: -0.493; glycan array binding signal (z-score) [33]: -0.456; glycan array binding signal (z-score) [34]: -0.025; glycan array binding signal (z-score) [35]: -0.372; glycan array binding signal (z-score) [36]: 0.123; glycan array binding signal (z-score) [37]: -0.117; glycan array binding signal (z-score) [38]: -0.285; glycan array binding signal (z-score) [39]: -0.047; glycan array binding signal (z-score) [40]: -0.424; glycan array binding signal (z-score) [41]: -0.16; glycan array binding signal (z-score) [42]: 0.984; glycan array binding signal (z-score) [43]: -0.111; glycan array binding signal (z-score) [44]: -0.474; glycan array binding signal (z-score) [45]: -0.341
